# Among all 220,000 compounds or so, about 16,000 (7.3%) were called active. The inconclusive results got no clear call from the source; some entries with a clear call stand among them for comparison. The call rests on the fitted dose curve; in most records, active means well fitted inhibition curve with a large enough effect (not every such curve was filed as active); inconclusive means small, poorly fitted or top-dose-only effect, or another doubt; inactive means no such curve, though single readings can be large or run the other way. No potency is given beside an inconclusive call; the fits are too rough.
# Biological target: Aldehyde dehydrogenase 1A1 (Homo sapiens) (UniProt P00352)
# Chain of UniProt P00352 (P00352 whole entry, looked up): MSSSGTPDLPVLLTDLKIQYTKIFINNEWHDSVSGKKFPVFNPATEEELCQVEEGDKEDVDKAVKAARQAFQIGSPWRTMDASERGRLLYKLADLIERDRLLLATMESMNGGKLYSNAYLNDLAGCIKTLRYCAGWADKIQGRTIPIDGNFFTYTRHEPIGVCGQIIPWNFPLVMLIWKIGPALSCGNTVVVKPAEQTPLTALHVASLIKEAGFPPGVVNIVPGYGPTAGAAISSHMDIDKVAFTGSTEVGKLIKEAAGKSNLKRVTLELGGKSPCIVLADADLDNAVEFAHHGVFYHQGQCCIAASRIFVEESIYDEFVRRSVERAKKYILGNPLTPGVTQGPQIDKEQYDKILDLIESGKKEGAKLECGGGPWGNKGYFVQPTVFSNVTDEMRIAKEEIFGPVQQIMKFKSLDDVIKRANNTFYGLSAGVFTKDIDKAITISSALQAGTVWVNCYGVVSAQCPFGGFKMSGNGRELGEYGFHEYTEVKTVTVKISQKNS
# Assay: qHTS Assay for Inhibitors of Aldehyde Dehydrogenase 1 (ALDH1A1);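 on activity, negative = inhibition: plate controls were no enzyme wells and a reference inhibitor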
# Details: Purified ALDH1A1, NADH fluorescence, propionaldehyde substrate; series mostly up to 75.3 µM; activity, negative = inhibition: at the top concentration
# Potency means the concentration at half of the fitted maximal effect; tags describe the fitted curve by direction and shape.
Structure (SMILES),Potency,"activity, negative = inhibition"
c1coc(-c2nnc(-c3cccs3)o2)c1,"inconclusive [inhibitor, partial curve]",–
Cc1cccc(C)c1Nc1nnc(SCC(=O)Nc2ncc(C(F)(F)F)cc2Cl)s1,"inconclusive [inhibitor, single point]",–
O=C(C1Cc2ccccc2CN1S(=O)(=O)c1cccs1)N1CCCCC1 (centres undefined),"inconclusive [inhibitor, single point]",–
CCOc1ccc(NC(=O)CSc2n[nH]c(=O)n2-c2ccccc2)cc1,"inconclusive [inhibitor, single point]",–
O=C1COc2ccc(C(=O)COC(=O)CCc3ccc(S(=O)(=O)N4CCOCC4)cc3)cc2N1,"inconclusive [inhibitor, partial curve]",–
Cn1c(=O)cc(SCC(=O)NCCC2=CCCCC2)c2ccccc21,"inconclusive [inhibitor, single point]",–
CCOc1ccccc1-c1nc2c(C(C)(C)C)nn(C)c2c(=O)[nH]1,–,inactive: 9.69%
CCOP(=O)(OCC)C(NC(=O)c1cccs1)C(F)(F)F (centres undefined),"inconclusive [inhibitor, partial curve]",–
Cc1ccc2c(c1)C(=O)C(=O)N2CC(=O)OC(C)C,active: 0.0794 µM,–
C=CCN1CCN(C(c2ccc(Cl)cc2)c2nnnn2CCc2ccc(OC)c(OC)c2)CC1 (centres undefined),–,inactive: -3.93%
O=C1c2ccccc2C(=O)N1CCCCSc1nnc2c(Cl)cc(Cl)cn12,"inconclusive [inhibitor, single point]",–
COc1cccc(C(=O)Nc2nnc(C(C)C)s2)c1,"inconclusive [inhibitor, single point]",–
Cc1cc(C)c2c(=O)[nH]c(SCC(=O)N3CCCCC3)nc2n1,"inconclusive [inhibitor, partial curve]",–
Cc1cccc(C2=NN(c3ccccc3)[C@@H](C(=O)N3CCOC3=O)[C@@H]2C)c1,"inconclusive [inhibitor, partial curve]",–
COc1ccc(O)c(/C=N/N=C2/C(=O)Nc3ccccc32)c1,"inconclusive [inhibitor, partial curve, poor fit]",–
O=C(c1cccnc1)N1CCc2ccccc21,–,inactive: 1.36%
CC1=NN(C(=O)c2ccncc2)C(=O)[C@@H]1N=Nc1ccc2ccccc2c1,–,inactive: 5.63% [at 13.5 µM]
CCc1cccc(C)c1NC(=O)COC(=O)C(NS(=O)(=O)c1ccc(Cl)cc1)C(C)O (centres undefined),–,inactive: 4.62%
Cc1ccc(C(=O)Nc2nnc(COc3ccccc3)s2)cc1,"inconclusive [inhibitor, single point]",–

# From PubChem BioAssay AID1030 (National Center for Advancing Translational Sciences (NCATS), 2008)
